These results are taken from US20100169988A1 (published 2010).

Assay [1] has as its target T1, APP-TAP-AICD (human, UniProt P05067). The experiment in a line: streptavidin purification of APP-TAP-AICD from brain homogenate; iTRAQ 116/114, transgenic mouse 75 vs control mouse 72; MALDI-TOF/TOF.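 Further: relative protein abundance in the transgenic versus control pull-down, limited to proteins with high quality scores and above-average enrichment, without full normalization across the whole measurement.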
The target in assay [2] is T1, APP-TAP-AICD. The experiment in a line: streptavidin purification of APP-TAP-AICD from brain homogenate; LTQ-FT semiquantitative method, transgenic mouse 75 vs control mouse 72.

B1: Hemoglobin alpha chain (other, mouse, UniProt P01942 2-142, looked up)
chain: VLSGEDKSNIKAAWGKIGGHGAEYGAEALERMFASFPTTKTYFPHFDVSHGSAQVKGHGKKVADALASAAGHLDDLPGALSALSDLHAHKLRVDPVNFKLLSHCLLVTLASHHPADFTPAVHASLDKFLASVSTVLTSKYR
Turning to B1, the iTRAQ ratio in the assay with APP-TAP-AICD [1] is 5.96.

B2: Hemoglobin, beta adult major chain (13 days embryo liver cDNA, RIKEN clone 2500004H04 product) (other, mouse, UniProt P02088 2-147, looked up)
chain: VHLTDAEKAAVSCLWGKVNSDEVGGEALGRLLVVYPWTQRYFDSFGDLSSASAIMGNAKVKAHGKKVITAFNDGLNHLDSLKGTFASLSELHCDKLHVDPENFRLLGNMIVIVLGHHLGKDFTPAAQAAFQKVVAGVATALAHKYH
notes: also called Q9CY54_MOUSE
Consider B2, for which the “probability that this protein is enriched” value with APP-TAP-AICD [2] came out at 0.88.
